Reference: publication PMC10668032
This is one part of the list. At the low end of the ranking the order means little.

molecular target: SIX1 homeodomain (reference allele) (UniProt Q15475); assay: universal protein binding microarray; settings: Universal all-10-mer PBM (8x60K, AMADID 030236), 300 nM GST-tagged protein, Alexa Fluor 488 anti-GST; buffer, salt, pH and temperature not stated; high values mean tight binding; most listed sequences are background and not binding sites; double strand, one strand shown

How did the binding signal turn out when CACAGAAG was run?
The binding signal was -0.0147 E-score.

How did the binding signal turn out when ATCAGGCA was run?
The binding signal was 0.0745 E-score.

Which binding signal does the source give for AAATATCG here?
Its binding signal is 0.128 E-score.

For CCATGTAG, which binding signal is on record?
Its binding signal is -0.0954 E-score.

How did the binding signal turn out when ACTACAGA was run?
The binding signal was 0.0645 E-score.

How did the binding signal turn out when ATGCACCC was run?
The binding signal was 0.086 E-score.

With ACAGATCC as the sequence, how does the binding signal read?
Its binding signal is 0.288 E-score.

Which binding signal does the source give for CGTGGGTC here?
The binding signal was 0.00723 E-score.

How did the binding signal turn out when CACAGCAA was run?
The binding signal was 0.113 E-score.

Which binding signal does the source give for AGACTTTG here?
The binding signal was -0.281 E-score.

Which binding signal does the source give for CTGTGACC here?
Its binding signal is -0.0966 E-score.

With GAATCGAA as the sequence, how does the binding signal read?
Its binding signal is -0.126 E-score.

With CTTAGCAA as the sequence, how does the binding signal read?
The binding signal was -0.242 E-score.

How did the binding signal turn out when AAGGTTCC was run?
Its binding signal is -0.12 E-score.

AGCGAGCT was tested. Which binding signal did it give?
The binding signal was 0.0842 E-score.

With TATCGAAA as the sequence, how does the binding signal read?
The binding signal was 0.345 E-score.

Which binding signal does the source give for GAATCATA here?
Its binding signal is -0.0778 E-score.

ATACAGAG was tested. Which binding signal did it give?
Its binding signal is 0.116 E-score.

Which binding signal does the source give for GGCGAAAA here?
The binding signal was -0.32 E-score.

For TCATGACA, which binding signal is on record?
The binding signal was 0.0517 E-score.

How did the binding signal turn out when AGCACTCA was run?
The binding signal was -0.228 E-score.

For AAGGGTAT, which binding signal is on record?
Its binding signal is 0.41 E-score.

For ATGCATTA, which binding signal is on record?
Its binding signal is 0.148 E-score.

AACGTCCT was tested. Which binding signal did it give?
Its binding signal is -0.237 E-score.

With GCAACCCC as the sequence, how does the binding signal read?
Its binding signal is -0.0952 E-score.

CCCGATGC was tested. Which binding signal did it give?
Its binding signal is 0.112 E-score.

For AATATTGA, which binding signal is on record?
Its binding signal is 0.0107 E-score.

How did the binding signal turn out when GATCATAA was run?
Its binding signal is 0.306 E-score.

GATAGTAA was tested. Which binding signal did it give?
The binding signal was 0.221 E-score.

For CAAGCCGC, which binding signal is on record?
Its binding signal is -0.136 E-score.

Which binding signal does the source give for GGCAGAAC here?
Its binding signal is -0.0861 E-score.

How did the binding signal turn out when CGGGTAGC was run?
Its binding signal is -0.0556 E-score.

For ACGCAGCT, which binding signal is on record?
Its binding signal is -0.15 E-score.

For AGGACCAT, which binding signal is on record?
Its binding signal is -0.0608 E-score.

For CTATAACA, which binding signal is on record?
The binding signal was -0.0432 E-score.

Which binding signal does the source give for CGCGATAC here?
Its binding signal is 0.458 E-score.

How did the binding signal turn out when CTGCCTCA was run?
The binding signal was -0.126 E-score.

For ATAGGGAG, which binding signal is on record?
The binding signal was 0.091 E-score.

Which binding signal does the source give for CTTCAACC here?
Its binding signal is -0.139 E-score.

ACTGAAAC was tested. Which binding signal did it give?
Its binding signal is 0.105 E-score.

With CTCCTCGC as the sequence, how does the binding signal read?
The binding signal was -0.0954 E-score.

ACGCTTTA was tested. Which binding signal did it give?
The binding signal was -0.278 E-score.

Which binding signal does the source give for AGAGTTAC here?
The binding signal was -0.0751 E-score.

For CAATGCGG, which binding signal is on record?
The binding signal was 0.176 E-score.

With ACTAATGA as the sequence, how does the binding signal read?
Its binding signal is 0.0163 E-score.

For GCCCATAA, which binding signal is on record?
Its binding signal is -0.0393 E-score.

For CCACAGGG, which binding signal is on record?
Its binding signal is -0.0393 E-score.

Which binding signal does the source give for TCCGACCA here?
Its binding signal is 0.0375 E-score.

CCTCGGTA was tested. Which binding signal did it give?
Its binding signal is -0.0538 E-score.

For AGTGACGG, which binding signal is on record?
The binding signal was 0.00215 E-score.

With GATAGGGA as the sequence, how does the binding signal read?
Its binding signal is 0.376 E-score.

ATGTAGTC was tested. Which binding signal did it give?
The binding signal was -0.0974 E-score.

CCCAGACG was tested. Which binding signal did it give?
Its binding signal is -0.0608 E-score.

How did the binding signal turn out when GCACCTCA was run?
Its binding signal is -0.0942 E-score.

Which binding signal does the source give for GCGGGGCA here?
The binding signal was 0.0307 E-score.

For CATCTACC, which binding signal is on record?
The binding signal was 0.156 E-score.

How did the binding signal turn out when TACTGCCA was run?
The binding signal was 0.0236 E-score.

For CCAAGGCA, which binding signal is on record?
The binding signal was -0.00904 E-score.

Which binding signal does the source give for AACCTCTC here?
The binding signal was -0.146 E-score.

For CTGGAATA, which binding signal is on record?
Its binding signal is 0.0952 E-score.

CGGATTAG was tested. Which binding signal did it give?
The binding signal was 0.251 E-score.

For CTAGGGTA, which binding signal is on record?
Its binding signal is 0.15 E-score.

CGCGTTAA was tested. Which binding signal did it give?
The binding signal was -0.0847 E-score.

Which binding signal does the source give for GGCAGTGA here?
The binding signal was -0.0157 E-score.

CCCTCTCG was tested. Which binding signal did it give?
Its binding signal is 0.0429 E-score.

With GGCTAACA as the sequence, how does the binding signal read?
The binding signal was 0.00317 E-score.

For ATCACCCC, which binding signal is on record?
The binding signal was 0.302 E-score.

Which binding signal does the source give for ACGTACGG here?
The binding signal was 0.00246 E-score.

For GATTCAGC, which binding signal is on record?
The binding signal was -0.178 E-score.

CCACAGAG was tested. Which binding signal did it give?
Its binding signal is -0.0746 E-score.

For ATGTGTAA, which binding signal is on record?
Its binding signal is 0.0676 E-score.

With TAGGTTCA as the sequence, how does the binding signal read?
Its binding signal is 0.0674 E-score.

Which binding signal does the source give for ACAACTGC here?
Its binding signal is -0.252 E-score.

For GGTCTGTA, which binding signal is on record?
The binding signal was 0.0389 E-score.

How did the binding signal turn out when GTAGGTCA was run?
Its binding signal is -0.264 E-score.

For GCTACGCC, which binding signal is on record?
The binding signal was -0.031 E-score.

For CCGTAGAC, which binding signal is on record?
The binding signal was -0.033 E-score.

How did the binding signal turn out when ATGCAAGA was run?
Its binding signal is 0.0291 E-score.

How did the binding signal turn out when CAATTTCG was run?
Its binding signal is -0.259 E-score.

How did the binding signal turn out when ACCATGCT was run?
The binding signal was 0.0723 E-score.

For CCGAGCGC, which binding signal is on record?
The binding signal was -0.0976 E-score.

For CTGGTAAG, which binding signal is on record?
The binding signal was -0.0233 E-score.

How did the binding signal turn out when AGCATTCA was run?
Its binding signal is -0.118 E-score.

Which binding signal does the source give for AACCTCGA here?
Its binding signal is -0.154 E-score.

How did the binding signal turn out when CCGTTTAC was run?
Its binding signal is -0.0558 E-score.

Which binding signal does the source give for CGAGGTAA here?
Its binding signal is -0.216 E-score.

How did the binding signal turn out when AATCCTGT was run?
Its binding signal is -0.0105 E-score.

How did the binding signal turn out when AACGCCCT was run?
Its binding signal is -0.308 E-score.

TGCTCACA was tested. Which binding signal did it give?
Its binding signal is -0.133 E-score.

GCCTCCTA was tested. Which binding signal did it give?
The binding signal was -0.135 E-score.

With ACAGAAAA as the sequence, how does the binding signal read?
The binding signal was -0.242 E-score.

For GGGAGCAA, which binding signal is on record?
Its binding signal is -0.161 E-score.

Which binding signal does the source give for CCAGCGAA here?
The binding signal was -0.12 E-score.

For CCCAATAG, which binding signal is on record?
Its binding signal is -0.0401 E-score.

Which binding signal does the source give for GGATAAGA here?
Its binding signal is 0.137 E-score.

With AGTGCAGG as the sequence, how does the binding signal read?
Its binding signal is -0.0994 E-score.

Which binding signal does the source give for AAGTCGTA here?
The binding signal was -0.15 E-score.

For CACCTGCA, which binding signal is on record?
Its binding signal is -0.00053 E-score.

CCAGTCAG was tested. Which binding signal did it give?
Its binding signal is -0.171 E-score.

For CATAAGGC, which binding signal is on record?
Its binding signal is -0.13 E-score.

For ACGCCCAC, which binding signal is on record?
The binding signal was -0.143 E-score.

How did the binding signal turn out when ATGTGACA was run?
The binding signal was -0.0198 E-score.

For AACTAACT, which binding signal is on record?
The binding signal was -0.153 E-score.

TAAAAGAA was tested. Which binding signal did it give?
Its binding signal is -0.183 E-score.

How did the binding signal turn out when ACTGCCTC was run?
The binding signal was -0.113 E-score.

With ACTTTGAG as the sequence, how does the binding signal read?
Its binding signal is -0.0364 E-score.

With CGAATCAA as the sequence, how does the binding signal read?
The binding signal was 0.005 E-score.

CCAAGCCC was tested. Which binding signal did it give?
The binding signal was -0.0645 E-score.

How did the binding signal turn out when GGTGACTA was run?
Its binding signal is -0.0832 E-score.

For GAACCAAC, which binding signal is on record?
Its binding signal is 0.0188 E-score.

With GAGTGACA as the sequence, how does the binding signal read?
Its binding signal is 0.0422 E-score.

How did the binding signal turn out when CGAGGCTA was run?
The binding signal was -0.0173 E-score.

How did the binding signal turn out when AGGCCTAC was run?
The binding signal was -0.172 E-score.

For GAACTCTA, which binding signal is on record?
Its binding signal is -0.118 E-score.

With AAGTACCA as the sequence, how does the binding signal read?
The binding signal was -0.0495 E-score.

How did the binding signal turn out when AATCAGTA was run?
The binding signal was -0.0148 E-score.

Which binding signal does the source give for CGAAGAGA here?
Its binding signal is 0.0554 E-score.

How did the binding signal turn out when AGTCCCAT was run?
Its binding signal is -0.259 E-score.

For AACATGGG, which binding signal is on record?
The binding signal was 0.0557 E-score.

With ACTTGGCC as the sequence, how does the binding signal read?
The binding signal was -0.147 E-score.

Which binding signal does the source give for GTTTAATA here?
Its binding signal is 0.0759 E-score.

AGCGTGGA was tested. Which binding signal did it give?
Its binding signal is -0.198 E-score.

AAGCATAC was tested. Which binding signal did it give?
The binding signal was 0.00651 E-score.

Which binding signal does the source give for ACCACCCA here?
Its binding signal is 0.0159 E-score.

How did the binding signal turn out when ACGTAGAG was run?
Its binding signal is -0.0563 E-score.

AGTAGTTC was tested. Which binding signal did it give?
Its binding signal is -0.136 E-score.

How did the binding signal turn out when TCCGTGAA was run?
Its binding signal is -0.0494 E-score.

Which binding signal does the source give for ACTCATGG here?
The binding signal was 0.0152 E-score.

For ACGCGGGG, which binding signal is on record?
The binding signal was 0.0464 E-score.
